Measured values: publication PMC3422510 (Developmental cell, 2012)

Target: HA-Sec5 (UniProt O54921 1-924)
Test: co-IP

Chain of UniProt O54921 (O54921 whole entry): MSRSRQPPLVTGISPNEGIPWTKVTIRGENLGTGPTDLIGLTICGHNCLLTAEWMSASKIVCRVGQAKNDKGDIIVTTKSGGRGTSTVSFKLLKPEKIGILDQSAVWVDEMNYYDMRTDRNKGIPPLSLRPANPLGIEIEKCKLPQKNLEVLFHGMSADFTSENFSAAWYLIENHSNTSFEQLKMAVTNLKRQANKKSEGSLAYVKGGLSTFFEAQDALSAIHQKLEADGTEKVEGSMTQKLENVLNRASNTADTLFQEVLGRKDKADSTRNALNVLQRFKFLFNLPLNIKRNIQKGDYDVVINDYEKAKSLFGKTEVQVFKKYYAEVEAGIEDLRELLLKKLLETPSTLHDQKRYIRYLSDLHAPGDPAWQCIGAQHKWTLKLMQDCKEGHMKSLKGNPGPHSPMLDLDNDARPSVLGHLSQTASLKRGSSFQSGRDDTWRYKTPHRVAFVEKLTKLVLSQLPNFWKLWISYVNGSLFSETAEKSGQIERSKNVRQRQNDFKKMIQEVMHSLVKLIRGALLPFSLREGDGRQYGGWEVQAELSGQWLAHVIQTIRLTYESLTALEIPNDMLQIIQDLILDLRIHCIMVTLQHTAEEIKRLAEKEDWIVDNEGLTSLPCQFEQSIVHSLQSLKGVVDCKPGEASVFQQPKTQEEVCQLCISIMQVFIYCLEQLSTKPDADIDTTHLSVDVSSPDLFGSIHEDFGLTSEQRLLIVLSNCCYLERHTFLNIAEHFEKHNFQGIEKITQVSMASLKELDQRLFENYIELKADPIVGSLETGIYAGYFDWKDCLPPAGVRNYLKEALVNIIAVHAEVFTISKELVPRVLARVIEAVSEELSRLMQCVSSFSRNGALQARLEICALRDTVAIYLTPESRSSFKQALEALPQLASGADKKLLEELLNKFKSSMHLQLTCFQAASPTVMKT

fold by which RhoA wt interacts more than this mutant [fold] | Binder
10 | GFP-RhoA^Q63L (natural protein) not shown
10 | GFP-RhoA^T19N (natural protein) not shown
